Laboratory results from publication PMC4943851.
These are yes or no findings as the source states them, for the method shown. In cells and extracts the contact can be indirect. Some results given as binding are weak or reduced against the parent protein; the word gives no strength. Sequences can lack the tags named with a protein.

Chains of the proteins cited; added tags and fusions are not shown. Residues count along the entry.
UniProt P08138, residues 29-427: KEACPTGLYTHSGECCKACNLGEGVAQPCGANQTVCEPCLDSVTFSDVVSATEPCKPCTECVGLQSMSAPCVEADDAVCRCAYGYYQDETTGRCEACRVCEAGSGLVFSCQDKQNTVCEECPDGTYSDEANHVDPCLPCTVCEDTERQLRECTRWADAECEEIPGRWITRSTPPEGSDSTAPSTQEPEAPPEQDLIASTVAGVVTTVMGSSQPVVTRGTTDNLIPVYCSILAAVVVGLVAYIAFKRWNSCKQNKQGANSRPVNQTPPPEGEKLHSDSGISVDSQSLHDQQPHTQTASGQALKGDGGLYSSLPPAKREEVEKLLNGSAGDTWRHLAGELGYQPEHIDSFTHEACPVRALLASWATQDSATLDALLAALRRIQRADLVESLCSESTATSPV

Molecular target: Myc-NGFR (nerve growth factor receptor) (UniProt P08138)
Assay: co-IP; H1299 cells transfected with the tagged plasmids; ~500 to 1000 ug of proteins incubated with the indicated antibody at 4°C for 4 hr or overnight, protein A or G beads, washed at least three times with lysis buffer; immunoblot

B1: HA-MDMX (protein, UniProt O15151 1-490)
chain: MTSFSTSAQCSTSDSACRISPGQINQVRPKLPLLKILHAAGAQGEMFTVKEVMHYLGQYIMVKQLYDQQEQHMVYCGGDLLGELLGRQSFSVKDPSPLYDMLRKNLVTLATATTDAAQTLALAQDHSMDIPSQDQLKQSAEESSTSRKRTTEDDIPTLPTSEHKCIHSREDEDLIENLAQDETSRLDLGFEEWDVAGLPWWFLGNLRSNYTPRSNGSTDLQTNQDVGTAIVSDTTDDLWFLNESVSEQLGVGIKVEAADTEQTSEEVGKVSDKKVIEVGKNDDLEDSKSLSDDTDVEVTSEDEWQCTECKKFNSPSKRYCFRCWALRKDWYSDCSKLTHSLSTSDITAIPEKENEGNDVPDCRRTISAPVVRPKDAYIKKENSKLFDPCNSVEFLDLAHSSESQETISSMGEQLDNLSEQRTDTENMEDCQNLLKPCSLCEKRPRDGNIIHGRTGHLVTCFHCARRLKKAGASCPICKKEIQLVIKVFIA
binding: binds
